Results on 54 compounds are retold here after PMC4336329 (PLoS ONE, 2015).

The structures appear in SMILES notation. About 2,200 (0.71%) of roughly 310,000 compounds showed an effect of 50% or more. Effects have a minus sign here. This is one part of the list.

For this test, the target named is human ether-à-go-go-related gene (hERG) potassium channel (human, UniProt Q12809). The test is described as follows: primary screen, population patch clamp on CHO cells stably expressing hERG.
human ether-à-go-go-related gene (hERG) potassium channel, sequence (Q12809 whole entry, looked up): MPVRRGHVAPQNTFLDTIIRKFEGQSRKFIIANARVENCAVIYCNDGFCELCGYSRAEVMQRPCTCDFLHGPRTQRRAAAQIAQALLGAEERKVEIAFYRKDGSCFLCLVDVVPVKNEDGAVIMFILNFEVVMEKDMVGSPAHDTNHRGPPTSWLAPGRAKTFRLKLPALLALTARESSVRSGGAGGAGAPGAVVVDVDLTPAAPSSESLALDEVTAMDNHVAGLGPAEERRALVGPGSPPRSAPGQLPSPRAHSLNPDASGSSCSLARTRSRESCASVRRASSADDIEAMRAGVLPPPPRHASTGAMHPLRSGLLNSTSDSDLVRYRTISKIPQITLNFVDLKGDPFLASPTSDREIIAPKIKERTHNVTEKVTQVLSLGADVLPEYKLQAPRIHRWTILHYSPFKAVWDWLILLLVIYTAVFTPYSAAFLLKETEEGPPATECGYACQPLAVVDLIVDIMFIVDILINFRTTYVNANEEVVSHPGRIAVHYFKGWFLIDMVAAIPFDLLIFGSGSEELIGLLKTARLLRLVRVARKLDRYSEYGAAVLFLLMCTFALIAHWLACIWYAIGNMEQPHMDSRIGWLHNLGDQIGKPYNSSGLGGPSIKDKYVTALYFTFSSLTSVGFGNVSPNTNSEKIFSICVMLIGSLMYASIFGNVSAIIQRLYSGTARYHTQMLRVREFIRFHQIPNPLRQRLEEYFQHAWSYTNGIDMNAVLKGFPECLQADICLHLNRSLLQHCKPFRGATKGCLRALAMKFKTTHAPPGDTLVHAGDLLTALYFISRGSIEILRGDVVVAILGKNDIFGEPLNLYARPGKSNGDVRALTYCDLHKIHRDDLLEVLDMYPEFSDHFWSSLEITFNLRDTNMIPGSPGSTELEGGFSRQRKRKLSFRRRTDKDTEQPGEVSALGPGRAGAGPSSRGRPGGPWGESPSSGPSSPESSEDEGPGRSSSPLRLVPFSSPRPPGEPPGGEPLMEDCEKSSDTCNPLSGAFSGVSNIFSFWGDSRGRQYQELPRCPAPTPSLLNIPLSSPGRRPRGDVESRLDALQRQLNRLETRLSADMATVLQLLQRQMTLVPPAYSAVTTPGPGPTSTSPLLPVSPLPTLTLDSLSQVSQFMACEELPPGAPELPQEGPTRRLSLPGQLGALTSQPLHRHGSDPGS
On to `O=C(Nc1ccccc1)N1CCN(c2ncccn2)CC1`, for which the “hERG current change (%, negative = inhibition) at 1uM” value worked out at 6.7%.

`CCOc1[nH]n(-c2ccccc2)c(=O)c1C=Nc1ccc(C)cc1`: the “hERG current change (%, negative = inhibition) at 1uM” value is given as -22.1%.

Regarding `O=C1ON=C(c2ccccc2[N+](=O)[O-])/C1=C/c1cccc([N+](=O)[O-])c1O`, the “hERG current change (%, negative = inhibition) at 1uM” value stood at 7.67%.

As for `N=c1c(-c2nc3ccccc3[nH]2)cc(C(=O)c2cccs2)nn1-c1ccccc1`, the “hERG current change (%, negative = inhibition) at 1uM” value was -2.22%.

On to `CCOC(=O)C1(Cc2cccc(F)c2)CCN(C(=O)C2CCC2)CC1`, for which the “hERG current change (%, negative = inhibition) at 1uM” value came to 10.1%.

Consider `Cc1ccc(C)n1-c1ccc(C(=O)N2CCOCC2)cc1`, for which the “hERG current change (%, negative = inhibition) at 1uM” value stood at 16.6%.

As to `FC(F)Sc1ccc(N=C2NN=C(c3ccc4c(c3)OCCO4)CS2)cc1`, the “hERG current change (%, negative = inhibition) at 1uM” value worked out at 4.45%.

For `CCC(C(=O)N1CCc2cc(OC)c(OC)cc2C1)c1ccccc1` (stereo not drawn), the “hERG current change (%, negative = inhibition) at 1uM” value is recorded as 16.3%.

On to `CC(C)(C)c1nnc(NC(=O)c2cc(-c3ccccc3)nc3ccccc23)s1`, for which the “hERG current change (%, negative = inhibition) at 1uM” value came out at 1.65%.

As for `COc1ccc(-c2csc3ncnc(Oc4ccc5c(C)cc(=O)oc5c4)c23)cc1`, the “hERG current change (%, negative = inhibition) at 1uM” value is reported as 12.4%.

On to `CCOc1ccccc1NC(=O)C(CC)Sc1nc2ccncc2[nH]1` (stereo not drawn), for which the “hERG current change (%, negative = inhibition) at 1uM” value came to 0.26%.

As for `CCOC(=O)N1CCN(C(=O)c2ccc3c(=O)n(-c4cc(OC)ccc4OC)c(=S)[nH]c3c2)CC1`, the “hERG current change (%, negative = inhibition) at 1uM” value was 16.3%.

On to `Cc1cccc(NC(=O)c2cccc(N3C(=O)C4C5CCC(C5)C4C3=O)c2)c1C` (stereo not drawn), for which the “hERG current change (%, negative = inhibition) at 1uM” value is -4.35%.

For `Cc1cc2ccccn2c1C(=O)Nc1cccc(Cl)c1`, the “hERG current change (%, negative = inhibition) at 1uM” value is listed as 33%.

As for `COc1ccc(C2=NN(C(=O)CN3CCOCC3)C(c3nc4ccccc4[nH]3)C2)cc1` (stereo not drawn), the “hERG current change (%, negative = inhibition) at 1uM” value was determined as 9.04%.

Regarding `O=S(=O)([N-]c1nc2ccccc2nc1-[n+]1ccc(-c2ccncc2)cc1)c1ccccc1`, the “hERG current change (%, negative = inhibition) at 1uM” value is 3.21%.

In the case of `CC1(C)Oc2ccc3ccc(=O)oc3c2-c2cnoc21`, the “hERG current change (%, negative = inhibition) at 1uM” value is given as 15.8%.

Consider `Cc1nn(Cc2ccc(C(=O)N3N=C(C(F)F)CC3(O)C(F)F)o2)c(C)c1[N+](=O)[O-]` (stereo not drawn), for which the “hERG current change (%, negative = inhibition) at 1uM” value is recorded as -1.34%.

For `Nc1c(N(Cc2ccco2)C(=O)COc2ccccc2Cl)c(=O)[nH]c(=O)n1Cc1ccccc1`, the “hERG current change (%, negative = inhibition) at 1uM” value was determined as 1.81%.

With `CCOC(=O)CSc1nc(-c2ccncc2)ccc1C#N`, the “hERG current change (%, negative = inhibition) at 1uM” value was -10.9%.

Consider `CCOC(=O)c1ccc2c(c1)NC(=O)C(N1CCN(c3ccc(OC)cc3)CC1)S2` (stereo not drawn), for which the “hERG current change (%, negative = inhibition) at 1uM” value stood at 7.56%.

Regarding `Cc1ccc(C(c2nnnn2CC2CCCO2)N2CCN(C(=O)c3ccco3)CC2)cc1` (stereo not drawn), the “hERG current change (%, negative = inhibition) at 1uM” value is recorded as 8.83%.

`COc1ccc2c(c1)C(=O)N(c1ccc(C)cc1C)C(=O)C2(C)C`: the “hERG current change (%, negative = inhibition) at 1uM” value was 14.2%.

Turning to `CCCCn1c(N)c(N(CC(C)C)C(=O)CSc2ccccc2C)c(=O)[nH]c1=O`, the “hERG current change (%, negative = inhibition) at 1uM” value came out at 1.42%.

With `O=C(c1ccco1)N1CCN(Cc2cccc(F)c2)CC1`, the “hERG current change (%, negative = inhibition) at 1uM” value came to 8.13%.

Consider `O=C(C(=O)N1CCN(c2ccccc2F)CC1)c1cn(CC(=O)N2CCOCC2)c2ccccc12`, for which the “hERG current change (%, negative = inhibition) at 1uM” value is 9.92%.

Regarding `CC1CCN(C(c2ccc(N(C)C)cc2)c2nnnn2Cc2ccccc2)CC1` (stereo not drawn), the “hERG current change (%, negative = inhibition) at 1uM” value is 4.98%.

For `C=CCn1c(SCC(=O)Nc2ccc(N3CCOCC3)cc2)nnc1-c1ccco1`, the “hERG current change (%, negative = inhibition) at 1uM” value is 8.51%.

On to `O=C(CCS(=O)(=O)c1ccc(Br)cc1)Nc1ccc2c(c1)OCO2`, for which the “hERG current change (%, negative = inhibition) at 1uM” value is reported as -1.98%.

Take `Cn1nnnc1SCC(=O)NCc1ccco1`: the “hERG current change (%, negative = inhibition) at 1uM” value is given as -5.51%.

Consider `CC(=O)c1cc(CN2CCC(n3nccc3NC(=O)c3ccccc3Cl)CC2)cs1`, for which the “hERG current change (%, negative = inhibition) at 1uM” value is listed as -40.5%.

Take `CCOC(=O)C1CCN(/C=C2/C(=O)NC(=O)N(c3cccc(C)c3C)C2=O)CC1`: the “hERG current change (%, negative = inhibition) at 1uM” value is recorded as 12.6%.

On to `COc1ccc2nc(-c3ccccc3)cc(C(=O)OCC(=O)N3CCCCC3)c2c1`, for which the “hERG current change (%, negative = inhibition) at 1uM” value is recorded as 2.2%.

In the case of `CCOc1cc2[nH]c(=S)n(Cc3ccc(C(=O)NCCCN(CC)CC)cc3)c(=O)c2cc1OCC`, the “hERG current change (%, negative = inhibition) at 1uM” value was determined as 11.9%.

On to `CC(Sc1nnc(-c2ccccc2F)n1C1CC1)C(=O)NCc1ccco1` (stereo not drawn), for which the “hERG current change (%, negative = inhibition) at 1uM” value came to 0.136%.

In the case of `CCOCCCNC(=O)c1ccc(Cn2c(=S)[nH]c3c([nH]c4ccc(OC)cc43)c2=O)cc1`, the “hERG current change (%, negative = inhibition) at 1uM” value came to 17.5%.

As for `CCCNC(=O)C1Cc2cc(S(=O)(=O)N3CCCC3)ccc2N1C(C)=O` (stereo not drawn), the “hERG current change (%, negative = inhibition) at 1uM” value was determined as 11.3%.

As for `COc1ccc(Cl)cc1NC(=O)CNCC(c1ccccc1)N(C)C.O=C(O)C(=O)O` (stereo not drawn), the “hERG current change (%, negative = inhibition) at 1uM” value is reported as -49.3%.

Turning to `COc1cc2c(cc1NC(=S)Nc1cccc(C)c1)oc1ccccc12`, the “hERG current change (%, negative = inhibition) at 1uM” value is 6.46%.

With `Nc1ccc2c(c1)C/C(=C/c1ccco1)C2=O`, the “hERG current change (%, negative = inhibition) at 1uM” value amounted to 11%.

With `CN(Cc1nc2ccc(F)cc2[nH]1)C(=O)C1CCC(=O)N(C2CC2)C1` (stereo not drawn), the “hERG current change (%, negative = inhibition) at 1uM” value is reported as -7.32%.

For `COc1ccc(S(=O)(=O)Nc2cc(C)on2)cc1NC(C)=O`, the “hERG current change (%, negative = inhibition) at 1uM” value is given as 13.8%.

In the case of `CC1(C)CC(=O)C2=C(C1)OC(N)=C(C#N)C2c1ccoc1` (stereo not drawn), the “hERG current change (%, negative = inhibition) at 1uM” value came to 8.2%.

Take `CC1CCN(CC(=O)Nc2ccc(Cl)cc2[N+](=O)[O-])CC1`: the “hERG current change (%, negative = inhibition) at 1uM” value is 13.6%.

Consider `CC1(OC(=O)c2ccco2)C(=O)C=C2C=C(c3ccc(C#N)cc3)OC=C2C1=O` (stereo not drawn), for which the “hERG current change (%, negative = inhibition) at 1uM” value came out at 7.63%.

For the compound `CC(OC(=O)CCCN=C1NS(=O)(=O)c2ccccc21)C(=O)Nc1ccc(F)cc1Cl` (stereo not drawn), the “hERG current change (%, negative = inhibition) at 1uM” value is given as -6.51%.

As to `COc1ccc(S(=O)(=O)NCc2cccnc2)cc1C(=O)Nc1ccccc1`, the “hERG current change (%, negative = inhibition) at 1uM” value is recorded as -9.32%.

For the compound `COC(=O)c1ccc2nc(Nc3nc4c(F)cc(F)cc4s3)sc2c1`, the “hERG current change (%, negative = inhibition) at 1uM” value was found to be 9.37%.

For the compound `O=C(Nc1ccc2c(c1)Cc1ccccc1-2)c1ccccc1F`, the “hERG current change (%, negative = inhibition) at 1uM” value turned out to be 13.9%.

Regarding `CCc1nonc1NC(=O)c1oc2ccccc2c1C`, the “hERG current change (%, negative = inhibition) at 1uM” value was determined as 11.8%.

`O=C(CSc1nnc(CSc2nc3ccccc3s2)o1)NC1CCCCC1`: the “hERG current change (%, negative = inhibition) at 1uM” value is given as 9.83%.

Turning to `CCCC(c1nnnn1CCc1ccccc1)N1CCN(C(=O)c2ccco2)CC1` (stereo not drawn), the “hERG current change (%, negative = inhibition) at 1uM” value is given as -16.4%.

With `Cc1ccc(NC(=O)CN2C(=O)NC(C)(CCc3ccccc3)C2=O)cc1` (stereo not drawn), the “hERG current change (%, negative = inhibition) at 1uM” value came out at 7.22%.

For `COc1ccccc1N1CN(Cc2ccccc2)CNC1=S`, the “hERG current change (%, negative = inhibition) at 1uM” value was 13.4%.
